# In the supplement of paper PMC8512760:
# The other results are listed elsewhere or left out. Single values are uncertain, as repeats are few or missing.
# Columns and labels:
# Test in all cases: cell viability relative to vehicle (% of vehicle); basal-like triple-negative breast cancer lines; higher = less cytotoxic
# Conditions in all cases: 10 µM; 72 h
# HCC-1143 = system: HCC-1143
# HCC-1187 = system: HCC-1187
# MDA-468 = system: MDA-468
# SUM-149 = system: SUM-149
# 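Further: stably firefly luciferase-GFP labeled cells in 96-well plates, viability read as luciferase photon flux after d-luciferin addition, treated wells normalized to vehicle wells, single-dose high-throughput screen.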
Structure (SMILES),cell viability (HCC-1143),cell viability (HCC-1187),cell viability (MDA-468),cell viability (SUM-149)
CCN(CCO)CCCOc1ccc2c(Nc3cc(CC(=O)Nc4cccc(F)c4)[nH]n3)ncnc2c1 [Barasertib (AZD1152-HQPA)],78.1,32.5,56.3,136
C#Cc1cccc(Nc2ncnc3cc(OCCOC)c(OCCOC)cc23)c1 [Erlotinib],85,69.4,60.1,88.7
CC(S)C(=O)NCC(=O)O (stereo unspecified) [Tiopronin (Thiola)],81.7,106,118,95.2
CC(=O)Oc1ccc(C(c2ccc(OC(C)=O)cc2)c2ccccn2)cc1 [Bisacodyl],32.3,115,158,190
COc1cc2c(Oc3ccc(NC(=O)C4(C(=O)Nc5ccc(F)cc5)CC4)cc3F)ccnc2cc1OCCCN1CCOCC1,105,82.8,101,87.1
CN(C)CC=CC(=O)Nc1cc2c(Nc3ccc(F)c(Cl)c3)ncnc2cc1OC1CCOC1.O=C(O)C=CC(=O)O.O=C(O)C=CC(=O)O (stereo unspecified) [Afatinib dimaleate],34.1,22.5,27.3,44.8
Cc1onc(-c2ccccc2)c1-c1ccc(S(N)(=O)=O)cc1 [Valdecoxib],124,88.6,111,122
NC(N)=Nc1nc(CSCCC(N)=NS(N)(=O)=O)cs1 [Famotidine],84.3,95.3,97.8,106
CNCC(O)c1cccc(O)c1.Cl (stereo unspecified) [Phenylephrine HCl],81.5,101,140,104
COC(=O)C1C2CC3c4[nH]c5cc(OC)ccc5c4CCN3CC2CC(OC(=O)c2cc(OC)c(OC)c(OC)c2)C1OC.Cl (stereo unspecified) [Reserpine hydrochloride],100,83.5,122,116
O=C([O-])C(O)C(O)C(O)C(O)C(O)CO.O=C([O-])C(O)C(O)C(O)C(O)C(O)CO.[Ca+2] (stereo unspecified) [Calcium Gluceptate],118,130,113,104
Cl.Cl.NC(=NCCCCCCN=C(N)N=C(N)Nc1ccc(Cl)cc1)N=C(N)Nc1ccc(Cl)cc1 [Chlorhexidine HCl],52.3,29.1,58.4,65.5
COC(=O)N=NC=C1C=[N+]([O-])c2ccccc2N1O [Carbadox],81.2,94.9,84.3,104
COC(=O)C(c1ccccc1Cl)N1CCc2sccc2C1.O=S(=O)(O)O (stereo unspecified) [Clopidogrel],87.6,99.8,88.6,119
CC12CCC3c4ccc(O)cc4CCC3C1CCC2O (stereo unspecified) [Estradiol],78.6,82.7,99.4,120
CC(C)CCCCC(=O)N[C@@H](CCN)C(=O)N[C@@H](CN[C@@H](CCN)C(=O)N[C@H]1CCNC(=O)[C@H]([C@@H](C)O)NC(=O)[C@H](CCN)NC(=O)[C@H](CCN)NC(=O)[C@H](CC(C)C)NC(=O)[C@@H](CC(C)C)NC(=O)[C@H](CCN)NC1=O)[C@@H](C)O.CCC(C)CCCCC(=O)N[C@@H](CCN)C(=O)N[C@@H](CN[C@@H](CCN)C(=O)N[C@H]1CCNC(=O)[C@H]([C@@H](C)O)NC(=O)[C@H](CCN)NC(=O)[C@H](CCN)NC(=O)[C@H](CC(C)C)NC(=O)[C@@H](CC(C)C)NC(=O)[C@H](CCN)NC1=O)[C@@H](C)O (stereo partly specified) [Colistin Sulfate],134,95.4,93,91.5
Cc1onc(-c2ccccc2Cl)c1C(=O)NC1C(=O)N2C1SC(C)(C)C2C(=O)[O-].O.[Na+] (stereo unspecified) [Cloxacillin Sodium],126,116,125,109
Cl.N=C(N)N [Guanidine HCl],87.8,116,109,92.1
Nc1cccc2c1CN(C1CCC(=O)NC1=O)C2=O (stereo unspecified) [Lenalidomide (CC-5013)],89.9,62.3,79.4,124
CCN(CC)CCNC(=O)c1c(C)[nH]c(C=C2C(=O)Nc3ccc(F)cc32)c1C.O=C(O)CC(O)C(=O)O [Sunitinib malate],108,71.8,21.4,24
COc1ccc2c(O[C@H]3CC4C(=O)N(C)CCCC/C=C\[C@H]5C[C@@]5(C(=O)NS(=O)(=O)C5CC5)NC(=O)[C@@H]4C3)cc(-c3nc(C(C)C)cs3)nc2c1C (stereo partly specified) [Simeprevir],79.3,82.6,84.6,109
CN1CCC(COc2cnc(-c3cccc(Cn4nc(-c5cccc(C#N)c5)ccc4=O)c3)nc2)CC1,90.4,44.3,24,30.7
CC(=CC(=O)OCCCCCCCCC(=O)O)CC1OCC(CC2OC2C(C)C(C)O)C(O)C1O (stereo unspecified) [Mupirocin],75.9,92.7,107,106
CCCC(NC(C)C(=O)N1C(C(=O)O)CC2CCCCC21)C(=O)OCC (stereo unspecified) [Perindopril],75.6,77.3,116,88.2
CN(C)CCCN1c2ccccc2CCc2ccccc21.Cl [Imipramine (hydrochloride)],73.9,86,99.4,83.2

Structure (SMILES),cell viability (HCC-1143),cell viability (HCC-1187),cell viability (MDA-468),cell viability (SUM-149)
CC1CC2C3CC(F)C4=CC(=O)C=CC4(C)C3(F)C(O)CC2(C)C1(O)C(=O)CO (stereo unspecified) [Flumethasone],77.6,104,163,186
CCCN(CCC)C(=O)C1=Cc2ccc(-c3ccc(C(=O)N4CCCC4)cc3)cc2NC(=N)C1 [Motolimod (VTX-2337)],72.5,38.1,99.5,120
NCCC(O)C(=O)NC1CC(N)C(OC2OC(CN)C(O)C(O)C2O)C(O)C1OC1OC(CO)C(O)C(N)C1O (stereo unspecified) [Amikacin],74.6,72.5,121,127
COc1ccc(C=CC(=O)Nc2ccccc2C(=O)O)cc1OC [Tranilast],40.5,38.9,56.2,136
CNC(=O)C(Cc1c[nH]c2ccccc12)NC(=O)C(CC(=O)NO)CC(C)C (stereo unspecified),82.3,62,69.5,72.3
CCOC(=O)C1=C(C)NC(C)=C(C(=O)OC)C1c1cccc([N+](=O)[O-])c1 (stereo unspecified) [Nitrendipine],84.9,87.1,102,114
CCC1OC(=O)C(C)C(OC2CC(C)(OC)C(O)C(C)O2)C(C)C(OC2OC(C)CC(N(C)C)C2O)C(C)(O)CC(C)C2NC(COCCOC)OC(C2C)C1(C)O (stereo unspecified) [Dirithromycin],62.1,82,95.7,87
CCn1cc(C(=O)O)c(=O)c2cc(F)c(N3CCNCC3)cc21 [Norfloxacin],122,115,111,101
CN(C)CCC(c1ccc(Br)cc1)c1ccccn1.O=C(O)C=CC(=O)O (stereo unspecified) [Brompheniramine hydrogen maleate],73.8,96.6,96.3,98.4
CC(C)OC(=O)C(C)(C)Oc1ccc(C(=O)c2ccc(Cl)cc2)cc1 [Fenofibrate],102,120,87.9,108
Cc1cc(C)cc(OCC2CNC(=O)O2)c1 (stereo unspecified) [Metaxalone],89.3,90.6,105,105
CC(CCC(=O)O)C1CCC2C3C(O)CC4CC(O)CCC4(C)C3CCC12C (stereo unspecified) [Chenodeoxycholic Acid],71.2,74.6,106,147
COc1nc2ccc(Br)cc2cc1[C@@H](c1ccccc1)[C@@](O)(CCN(C)C)c1cccc2ccccc12 [Bedaquiline],106,91.8,113,109
CC1(C)O[C@@H]2C[C@H]3[C@@H]4CCC5=CC(=O)CC[C@]5(C)[C@@]4(F)[C@@H](O)C[C@]3(C)[C@]2(C(=O)CCl)O1 [Halcinonide],80.1,108,148,154
COc1nc(C)cnc1NS(=O)(=O)c1cccnc1-c1ccc(-c2nnco2)cc1 [Zibotentan (ZD4054)],84.2,82.7,86.8,115
Cc1nc(C(=O)NCC(=O)O)c(O)c2ccc(Oc3ccccc3)cc12,87.9,87.4,101,132
CCCCN1CCCCC1C(=O)Nc1c(C)cccc1C.Cl (stereo unspecified) [Levobupivacaine HCl],79.4,81.8,106,137
COc1c2ccoc2cc2oc(=O)ccc12 [5-Methoxypsoralen],77.3,87.6,131,112
CC(C)Cc1ccc(C(C)C(=O)O)cc1.NCCCCC(N)C(=O)O (stereo unspecified) [Ibuprofen Lysine],73.5,65.5,78.5,101
CC1=CC(=O)c2ccccc2C1=O [Menadione],76.8,109,85.5,93.5
COc1cc2nccc(Oc3ccc(NC(=O)C4(C(=O)Nc5ccc(F)cc5)CC4)cc3)c2cc1OC,83.4,65,72.8,92
CN(CC=CC#CC(C)(C)C)Cc1cccc2ccccc12 [Terbinafine],82.3,103,122,115
CCC1=C(C)CN(C(=O)NCCc2ccc(S(=O)(=O)NC(=O)NC3CCC(C)CC3)cc2)C1=O (stereo unspecified) [Glimepiride],97.7,94.4,95,114
COc1cc2ncnc(Nc3ccc(F)c(Cl)c3)c2cc1OCCCN1CCOCC1 [Gefitinib (ZD1839)],87.8,71.9,77.8,77.3
